Experimental data published in the RNAGym collection of RNA variant scans (doi:10.7554/elife.90254).
Read counts are not given, so values of variants with three or more changes are uncertain.

B1: LINE1-mini (parent)
chain: GGCAGAGCUCAACACAGCGUGGCAAAGUGGCUGUGGCUAGACUGCC

Variants of: B1
Assay: self-cleavage, relative activity (ratio to wild type); higher = more cleavage; in vitro, sequencing; the parent is a self-cleaving ribozyme
With GGCACAGCUCAACACAGCGUGACAAAAUUGCUGAGGCUAGACUGCC the self-cleavage was 0.02.
For GGUAGAGCACAACACAGCGUGGCAAAGGGGCUGUGGCUAGAUUGCC, the self-cleavage was 0.09.
For GGGAGAGCUAAACACAGCGAGGCAAAGUGGCUGUGGCUAGACUGCC, the self-cleavage was 0.02.
In the case of GACAGGGCCCAACACAUCGUGGCAUAGUGGCUGUGGCUAGACUGCC, the self-cleavage is reported as 0.02.
Work on GGCGGAGAUCAACCCAGCGUAGCAAAGUGACUGUGGCUAGACUGCA yielded a self-cleavage of 0.11.
GGCAGAGCUCAACACACAGUGGCGAAGUGGCUGUGGCUAGACUGCC gave a self-cleavage of 0.08.
GGCAGAGCUCAACACAGCGUGGCAAAGUGGCUCUAGCUAGUCUGAC gave a self-cleavage of 0.
In the case of GGCAGAGCUCACCACAGCGUGGCAAAGUGUCUGUGGCUAGAUUGCC, the self-cleavage is reported as 0.03.
GGCAGGGUUGAACACUACGUGGCAAAGUGGCUGUGGCUAGACUGCC showed a self-cleavage of 0.02.
GGCAGAGUUCAACACAACGUGGCAAAGUGGCUGUGGCUCGACUGCC gave a self-cleavage of 0.12.
With GGCAGCGCUAAACACAGCGUGGCAAAGUGGCUGUGGCUUGACUGCC the self-cleavage was 0.12.
UGCAAAGAUCAACACAGCGUGGCAAAGUGGCUGUGGCUAGAAUGCC gave a self-cleavage of 0.16.
UGCAGAGCUCAACACAUCAUUGCAAAGUGGCUGUGGCUAGACUGCC showed a self-cleavage of 0.53.
Variant GGCAGAGCUAAACGCAGCGUGGCAAACUGGCUGUGGCUAGACUGCC has a self-cleavage of 0.03.
Work on GGAAGAGCUCAACACAGAGUGGCAAAGUGGCGGUGGCUAGACUGCC yielded a self-cleavage of 0.
GGCAGAGCUCUACUCAGCGAGGCAAAGUGGUUGUGGCUAGACUGCA showed a self-cleavage of 0.03.
Work on GGCAGAACUCAACACAGAGUGGCAAAGUGGCUGUGGCUAGACCGCC yielded a self-cleavage of 0.13.
GGCAGAGCUCAAUACAUCGUGGCAUAGUGGCUGUGGCUAGACUGCC gave a self-cleavage of 0.03.
In the case of GGCAGAGCUAAACACAGCUUGGCAAAGCGGCUGUGGCUAGACUGCA, the self-cleavage is reported as 0.03.
GGCAGUGCUAAACACAGCGUGGCAAAGUCGCAGUGGCUAGACUGUC showed a self-cleavage of 0.03.
With GGCAGAGCUAAACACAGCGUGGCAAGGUGUCGGUGGCUAGACUGAC the self-cleavage was 0.02.
With GGCAGAGCUCAACACAACGUGGCAAAGUGGGUGUAGCUAGACAGCC the self-cleavage was 0.
GGCAGGGCUCAACACAGCGUGGCAAAUUGGCUGUGGCUAGACCGCC gave a self-cleavage of 0.04.
Variant GGCAGAGCUAAACACAGCGUGGAAAGGUGGCUGUGGCUAGACUGGC has a self-cleavage of 0.04.
Work on GGCAGAGCUAAACACAGAGUGGUAAAGUGGCUGUGGCUAGACUGCC yielded a self-cleavage of 0.07.
CGCAGAGCUCGACACAGCGUGGCAAAGUGGCUGUUGCUAGCCUGCC showed a self-cleavage of 0.01.
For GGCAGAGAUCGACACAGCGGGGCAAAGUGGCUGUGGCUAGACUGCC, the self-cleavage was 0.02.
Variant GGCAGAGCUCAACAUAGCCUGGCAAAGUGGCUGUGGCAAGACUGCC has a self-cleavage of 0.41.
GGAAGAGCUCAACAUAGAGUCGCAAUUUGGUUGUGGCUAGACUGCC gave a self-cleavage of 0.02.
In the case of GGCAUAGCUCAACACAGCGUGGCAAAGUGGCUGUGGCUAGACUUAC, the self-cleavage is reported as 0.05.
AGCAGAUCUCAACACAGCGUGGCAAAGUGGCUGUGUCUAGACUGCC showed a self-cleavage of 0.15.
For GGCAGAGGUCACCACAGCGUGGCAAAGUGGCUGUGGCUAGUGUGCC, the self-cleavage was 0.04.
In the case of GGAAGAGCUCACCAUAGCGUGGCAAAGUGGCUGUGGCUAGUCUGCA, the self-cleavage is reported as 0.05.
Work on GGUAGAGCUCAACACAGCGUCGCGAAGUGGCUGUGGCUAGACUGCC yielded a self-cleavage of 0.18.
For GGCAGAGCUCAACAUAGGGUGGCAAAGUGGCUGUGGCUAGACUGCG, the self-cleavage was 0.02.
GGCAGAGCUCUACAAAGCGUGGCAAAGUGGCUGUCGCUAUACUGCC showed a self-cleavage of 0.02.
Work on GGCAGAGCUGAACACAGCGUGGCCAAGUUCCUGUGGCUAGACUGCC yielded a self-cleavage of 0.01.
In the case of GGCAGAGCUCAAUACAGUGUGGCAAAGUGGCUGGGGCUAGACUGCA, the self-cleavage is reported as 0.01.
With GGCAGAGCUAAACACAGCGUGGAAAAGUGUCUGUGGCUAGAUUGCC the self-cleavage was 0.07.
GGCCGAGCUCAACGCAGCGUGGCAAAGUGGCUGUGGCUAGACUGAG showed a self-cleavage of 0.05.
Work on GGCAGAGCUCAACACAGCGUGGCAAAGGGGCAGUGGCUAGUCUGCC yielded a self-cleavage of 0.25.
Work on GGCAGAGCUCCACACAGCGUUGCAAAGUGGCUGUGGCUGGACUGCC yielded a self-cleavage of 0.08.
Work on GGCAGAGCUCAACACUGCGUUGCAAAGUGGAUGUGGCUAGAAUGCG yielded a self-cleavage of 0.01.
With GGCAGAGUUCAACACACCGCGGCAAAGUUGCUGUGGCUAGACUGCC the self-cleavage was 0.09.
Work on GGCAGAGCUCAACGCAGCGUGGCAAACUGGUUGCGGCUAGACUGCC yielded a self-cleavage of 0.4.
GGCAGAGCCCAAAACAGCGUCGCUAAGUGGCUGUGGCUAGACUGCC gave a self-cleavage of 0.02.
Variant GGCAGAGCUCAACACAGCGUGGCAAAGUGAUUGUGGCUGGACUGCC has a self-cleavage of 0.03.
In the case of GGCACAGCUCUCCACAGCGUGGCAAAGUGGCUGUGGCUAGACUGCC, the self-cleavage is reported as 0.03.
In the case of GGCAGAACUCAACACAGCGUGCCAAAGUGGCUUUGGCAAGACUGCC, the self-cleavage is reported as 0.11.
For GGCAGAGCUCAACACAGCGUGGCAAAGUCGGUGUGGCUAUACUGCC, the self-cleavage was 0.06.
With GGUAGAGCUCAACACAGCGUGGCAAAGUGACUGUGUCUAGACUGCC the self-cleavage was 0.57.
With GACAGGGCUCAACACAGCGGGGCAAAGUGGAUGUGGCUCGACUGCC the self-cleavage was 0.06.
GGCAGACCUCAACACAGCGUUGCAAAGUGGCUGGGGCUAGACUGCC gave a self-cleavage of 0.01.
With GGCAGAGCUCAACACACCGUCGCAAAGUGGCUGUGGCUAGACCGCC the self-cleavage was 0.24.
Variant GGCAGAGCUCGAUACAGCGUGGCAAAGAGGCUGUGGCUAUACUGCC has a self-cleavage of 0.02.
GGCAGACCUCAACAAAGCGUAGCAAAGUGGCUGUGGCUCGACUGCC showed a self-cleavage of 0.15.
